Data: paper PMC12820563
The list shows a part of the results. The list includes weakly bound sequences.

Molecular target: T1, MBP-FoxP3dN (UniProt Q99JB6)
T1 sequence: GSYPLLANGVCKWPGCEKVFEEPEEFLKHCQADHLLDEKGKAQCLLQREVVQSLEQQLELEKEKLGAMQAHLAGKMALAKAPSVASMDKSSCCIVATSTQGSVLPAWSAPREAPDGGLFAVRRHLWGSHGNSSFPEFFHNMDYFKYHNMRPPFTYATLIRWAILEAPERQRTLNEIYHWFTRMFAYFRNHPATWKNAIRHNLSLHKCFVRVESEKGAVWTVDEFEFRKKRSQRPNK
Assay: PD-seq (MBP pull-down with sequencing)
Settings: 20 mM Tris-HCl pH 7.5, 100 mM NaCl, 1.5 mM MgCl2, 0.4 uM protein, 0.1 uM dsDNA library, 30 min, room temperature, amylose pull-down; high values mean tight binding; double strand, one strand shown

Sequence | binding signal (RPM ratio (pull-down/input))
GATGATTGTTCTCCCAGCTGATGAATTAGAAACGTCGAGTAAACAAATTTTCCTAATCTTTCTGTTCAAGCGCCATCTAC | 0.305
GATGATTGTTCTCCCAGCTGATGAATTAATAGGATCGAGTAAACAAATTTTCCTAATCTTTCTGTTCAAGCGCCATCTAC | 0.284
GATGATTGTTCTCCCAGCTGATGAATTAGAAGCATCGAGTAAACAAATTTTCCTAATCTTTCTGTTCAAGCGCCATCTAC | 0.694
GATGATTGTTCTCCCAGCTGATGAATTCCATAGATCGAGTAAACAAATTTTCCTAATCTTTCTGTTCAAGCGCCATCTAC | 0.239
GATGATTGTTCTCCCAGCTGATGAATTAGGGCTATCGAGTAAACAAATTTTCCTAATCTTTCTGTTCAAGCGCCATCTAC | 0.609
GATGATTGTTCTCCCAGCTGATGAATTGGTGCTATCGAGTAAACAAATTTTCCTAATCTTTCTGTTCAAGCGCCATCTAC | 0.891
GATGATTGTTCTCCCAGCTGATGAATTTTGAGTTTCGAGTAAACAAATTTTCCTAATCTTTCTGTTCAAGCGCCATCTAC | 1.6
GATGATTGTTCTCCCAGCTGATGAATTAACGTGATCGAGTAAACAAATTTTCCTAATCTTTCTGTTCAAGCGCCATCTAC | 0.414
GATGATTGTTCTCCCAGCTGATGAATTAAGGTTGTCGAGTAAACAAATTTTCCTAATCTTTCTGTTCAAGCGCCATCTAC | 0.807
GATGATTGTTCTCCCAGCTGATGAATTTAAGTCTTCGAGTAAACAAATTTTCCTAATCTTTCTGTTCAAGCGCCATCTAC | 0.457
GATGATTGTTCTCCCAGCTGATGAATTTAAAGTATCGAGTAAACAAATTTTCCTAATCTTTCTGTTCAAGCGCCATCTAC | 0.501
GATGATTGTTCTCCCAGCTGATGAATTCTTTTCATCGAGTAAACAAATTTTCCTAATCTTTCTGTTCAAGCGCCATCTAC | 0.33
GATGATTGTTCTCCCAGCTGATGAATTCATGGTGTCGAGTAAACAAATTTTCCTAATCTTTCTGTTCAAGCGCCATCTAC | 1.3
GATGATTGTTCTCCCAGCTGATGAATTTAATTAGTCGAGTAAACAAATTTTCCTAATCTTTCTGTTCAAGCGCCATCTAC | 2.64
GATGATTGTTCTCCCAGCTGATGAATTGCAACGCTCGAGTAAACAAATTTTCCTAATCTTTCTGTTCAAGCGCCATCTAC | 1.21
GATGATTGTTCTCCCAGCTGATGAATTTCGGAATTCGAGTAAACAAATTTTCCTAATCTTTCTGTTCAAGCGCCATCTAC | 0.657
GATGATTGTTCTCCCAGCTGATGAATTAAATCAGTCGAGTAAACAAATTTTCCTAATCTTTCTGTTCAAGCGCCATCTAC | 0.256
GATGATTGTTCTCCCAGCTGATGAATTATCTCTGTCGAGTAAACAAATTTTCCTAATCTTTCTGTTCAAGCGCCATCTAC | 0.24
GATGATTGTTCTCCCAGCTGATGAATTTCCGGCCTCGAGTAAACAAATTTTCCTAATCTTTCTGTTCAAGCGCCATCTAC | 0.336
GATGATTGTTCTCCCAGCTGATGAATTCAACGCTTCGAGTAAACAAATTTTCCTAATCTTTCTGTTCAAGCGCCATCTAC | 0.458

Sequence | binding signal (RPM ratio (pull-down/input))
GATGATTGTTCTCCCAGCTGATGAATTACTCGAGTCGAGTAAACAAATTTTCCTAATCTTTCTGTTCAAGCGCCATCTAC | 0.248
GATGATTGTTCTCCCAGCTGATGAATTCCTAGGATCGAGTAAACAAATTTTCCTAATCTTTCTGTTCAAGCGCCATCTAC | 0.204
GATGATTGTTCTCCCAGCTGATGAATTACGGTGGTCGAGTAAACAAATTTTCCTAATCTTTCTGTTCAAGCGCCATCTAC | 0.504
GATGATTGTTCTCCCAGCTGATGAATTACACGTGTCGAGTAAACAAATTTTCCTAATCTTTCTGTTCAAGCGCCATCTAC | 0.73
GATGATTGTTCTCCCAGCTGATGAATTCTCAGTTTCGAGTAAACAAATTTTCCTAATCTTTCTGTTCAAGCGCCATCTAC | 0.32
GATGATTGTTCTCCCAGCTGATGAATTCGAGCGTTCGAGTAAACAAATTTTCCTAATCTTTCTGTTCAAGCGCCATCTAC | 1.05
GATGATTGTTCTCCCAGCTGATGAATTTTGTTCGTCGAGTAAACAAATTTTCCTAATCTTTCTGTTCAAGCGCCATCTAC | 1.45
GATGATTGTTCTCCCAGCTGATGAATTGACAACTTCGAGTAAACAAATTTTCCTAATCTTTCTGTTCAAGCGCCATCTAC | 0.645
GATGATTGTTCTCCCAGCTGATGAATTAGTTCGCTCGAGTAAACAAATTTTCCTAATCTTTCTGTTCAAGCGCCATCTAC | 0.39
GATGATTGTTCTCCCAGCTGATGAATTTCTTCTTTCGAGTAAACAAATTTTCCTAATCTTTCTGTTCAAGCGCCATCTAC | 0.221
GATGATTGTTCTCCCAGCTGATGAATTCATTCATTCGAGTAAACAAATTTTCCTAATCTTTCTGTTCAAGCGCCATCTAC | 0.323
GATGATTGTTCTCCCAGCTGATGAATTCAGGCTATCGAGTAAACAAATTTTCCTAATCTTTCTGTTCAAGCGCCATCTAC | 0.527
GATGATTGTTCTCCCAGCTGATGAATTTGTCATCTCGAGTAAACAAATTTTCCTAATCTTTCTGTTCAAGCGCCATCTAC | 6.03
GATGATTGTTCTCCCAGCTGATGAATTCAGCGGTTCGAGTAAACAAATTTTCCTAATCTTTCTGTTCAAGCGCCATCTAC | 0.48
GATGATTGTTCTCCCAGCTGATGAATTTCACTGGTCGAGTAAACAAATTTTCCTAATCTTTCTGTTCAAGCGCCATCTAC | 0.282
GATGATTGTTCTCCCAGCTGATGAATTCAATCAGTCGAGTAAACAAATTTTCCTAATCTTTCTGTTCAAGCGCCATCTAC | 0.321
GATGATTGTTCTCCCAGCTGATGAATTTAAACGCTCGAGTAAACAAATTTTCCTAATCTTTCTGTTCAAGCGCCATCTAC | 0.381
GATGATTGTTCTCCCAGCTGATGAATTGGATGTGTCGAGTAAACAAATTTTCCTAATCTTTCTGTTCAAGCGCCATCTAC | 1.83
GATGATTGTTCTCCCAGCTGATGAATTATGCGGCTCGAGTAAACAAATTTTCCTAATCTTTCTGTTCAAGCGCCATCTAC | 1.5
GATGATTGTTCTCCCAGCTGATGAATTTTGCGTGTCGAGTAAACAAATTTTCCTAATCTTTCTGTTCAAGCGCCATCTAC | 5.56
